According to the BET-seq Pho4 binding data (Le et al. 2018):
The other results are listed elsewhere or left out. Values were computed here from the reads of four pooled replicates and scatter widely.

target: T1, Pho4 (S. cerevisiae) (UniProt P07270); assay: relative binding free energy (BET-seq); higher = weaker binding; conditions: reference: library average
T1 sequence: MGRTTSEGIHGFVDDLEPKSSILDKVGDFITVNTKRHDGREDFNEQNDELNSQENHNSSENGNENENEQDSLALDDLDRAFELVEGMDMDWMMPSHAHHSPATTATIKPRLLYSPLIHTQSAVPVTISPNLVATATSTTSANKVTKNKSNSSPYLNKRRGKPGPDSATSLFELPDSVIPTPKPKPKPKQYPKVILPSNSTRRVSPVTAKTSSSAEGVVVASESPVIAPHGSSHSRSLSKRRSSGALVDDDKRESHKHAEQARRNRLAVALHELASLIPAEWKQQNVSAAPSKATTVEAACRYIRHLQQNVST

Sequence	relative binding free energy [kcal/mol]
AATTGCACGTGTCGTG	0.01
AGTGCCACGTGTAAGT	-0.11
CTAGGCACGTGTTGAT	-0.14
TTGATCACGTGTGCTT	0.06
AGTGGCACGTGAGTGA	0.14
GTGTGCACGTGTTTGA	0
TTTGTCACGTGCTGGC	0.17
ATTTTCACGTGTCTGA	0.29
TCGGTCACGTGGATGG	0.01
GGGGGCACGTGATTCT	0.01
CCGGGCACGTGAGCGG	0.1
CGTTTCACGTGTGGGT	0.33
GGTGCCACGTGCTGTG	-0.06
GGGGTCACGTGTAATA	0.22
GTTTACACGTGCGGGA	0.09
TTTTCCACGTGGGCGG	-0.01
AGTATCACGTGGTCGT	-0.07
TACGGCACGTGTATGG	-0.02
CTGAGCACGTGGTATG	-0.09
TTTCGCACGTGTGGGT	0.04
CTGATCACGTGGATGT	0.2
TGTGCCACGTGGGGGT	-0.29
ATATGCACGTGTACTT	-0.08

Sequence	relative binding free energy [kcal/mol]
TAAGGCACGTGAGCGG	-0.01
TGGGTCACGTGGGTAC	-0.07
AGGAACACGTGTGAGT	-0.04
AGTAGCACGTGCGGGT	-0.18
TTGAGCACGTGAATTG	0.37
AAGCGCACGTGCGGGT	-0.24
ATTTACACGTGTATCT	0.16
ATAAGCACGTGGGATG	-0.32
AACTTCACGTGATTGG	0.31
ATAGGCACGTGAAAGT	0.04
TGTGCCACGTGTGTTT	0.02
CGCTTCACGTGGAGTG	0.16
GCATTCACGTGGGTGT	0.21
GGAGACACGTGGTCGT	-0.04
GCGATCACGTGAGTGG	0.38
CGATACACGTGAGGGG	0.2
ATCGTCACGTGATGTC	0.33
AGCGGCACGTGGCGGA	-0.07
ATTGGCACGTGCTAGA	-0.15
CGGCTCACGTGGGGCG	0.01
GAAGGCACGTGGTTTT	-0.08
GATGTCACGTGTTACG	0.24
CTTTACACGTGGGGAG	-0.02

Sequence	relative binding free energy [kcal/mol]
TGTTACACGTGAGCTG	0.27
TAAGGCACGTGGTTCG	-0.24
GTATACACGTGGGATT	-0.11
TACGTCACGTGTTTGG	0.15
GGTTTCACGTGGAGTT	0.33
TGAATCACGTGGGATT	0.04
TAAAGCACGTGGTTGA	-0.15
GACTGCACGTGGTGGT	-0.03
AATGGCACGTGGGTTG	-0.23
TTTGACACGTGTTATT	0.1
CAGGGCACGTGTACGG	0.09
ATCTTCACGTGTGCGT	0.4
GGGACCACGTGGTATT	0
GGCCGCACGTGATGGG	0.23
GATGACACGTGTGTAT	0.14
CGGCTCACGTGGTGTG	-0.02
ACAGTCACGTGATTGG	0.17
GCGGTCACGTGGACTG	0.14
TTGGGCACGTGTGGGG	-0.03
TGGGTCACGTGGGACA	0
GAGTTCACGTGATTGG	0.36
AGTGGCACGTGGAGCT	-0.25
GCGCGCACGTGTTGGT	-0.19

Sequence	relative binding free energy [kcal/mol]
TTGTCCACGTGGGGTT	-0.09
AAATTCACGTGTGTTA	0.28
CTTGACACGTGGGTTT	-0.1
ATTGTCACGTGCTGAT	-0.03
TGGCGCACGTGGAGAG	0.02
GATTTCACGTGGGAGA	0.22
AACTGCACGTGATGGG	0.06
TGTCTCACGTGATATT	0.32
CGTTGCACGTGCGTGT	-0.13
TTTTCCACGTGAAGTT	0.38
GCGGGCACGTGGGCAA	-0.12
GTGTTCACGTGTCTTA	0.2
TTAGGCACGTGCATGA	-0.16
GTAGGCACGTGGCGGA	-0.21
GAGTACACGTGGGGGT	0.01
CTTGGCACGTGGTGCG	-0.24
ATGCTCACGTGGTAGT	0.13
AGTATCACGTGCGATT	0.18
GGTTGCACGTGGGATA	-0.04
ATTTCCACGTGAGTTG	0.31
GTAAGCACGTGTGATG	0.15
CTTTTCACGTGATGTG	0.26
GTCGGCACGTGTTTGG	-0.01

Sequence	relative binding free energy [kcal/mol]
GTGCGCACGTGGAAGT	0.04
GCGTTCACGTGCTGGG	0.3
ATTTACACGTGTGGGT	0.21
GACGTCACGTGTGGGC	0.32
TATTACACGTGTTCAG	0.1
TCGGTCACGTGGTTCT	0.14
GGCAGCACGTGGAGTT	-0.01
AGGTACACGTGATTTA	0.1
GGGGTCACGTGTATTG	0.12
TTTCACACGTGTTAGA	0.16
TGTCGCACGTGGAGTT	0.03
TTCGTCACGTGAAAGT	0.38
AAACGCACGTGGGGTT	-0.21
GTCAACACGTGAGGTG	0.1
CGTGACACGTGGTGGA	0.12
GATAGCACGTGAAGTA	0.42
GTGGTCACGTGAATTC	0.27
CAATTCACGTGTGGGG	0.19
TCCGGCACGTGGTAGT	-0.19
TCAAGCACGTGAAAGG	0.41
GGTGTCACGTGTATGC	0.1
TTGGTCACGTGCGTAT	0.08
AGTGCCACGTGGGAGA	-0.17
